Source: PubChem BioAssay AID485344 (National Center for Advancing Translational Sciences (NCATS), 2010)
Among all 340,000 compounds or so, about 6,900 (2%) were called active. Cut-off read from the data, not from the text of the source: active = inhibition above about 30%; inactive = below that, where a call was filed. The list shows a part of the results, in another mix than the full data. Where no call is shown, the source filed none.

Biological target: D(2) dopamine receptor (Homo sapiens) (UniProt P14416)
Assay: HTS Assay for Allosteric Antagonists of the Human D2 Dopamine Receptor: Primary Screen for Antagonists; note: 0% is about no effect
Details: HEK293 TREx D2 cells, calcium flux, dopamine EC80; at 10 µM; stronger effect = higher value
Method in brief: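 Compounds are added to dye-loaded, induced HEK293 T-REx cells coupled to calcium release via D2; after a 3 min kinetic read an EC80 dopamine stimulus is given and fluorescence is recorded for 3 more min.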

UniProt P14416, sequence (P14416 whole entry, looked up): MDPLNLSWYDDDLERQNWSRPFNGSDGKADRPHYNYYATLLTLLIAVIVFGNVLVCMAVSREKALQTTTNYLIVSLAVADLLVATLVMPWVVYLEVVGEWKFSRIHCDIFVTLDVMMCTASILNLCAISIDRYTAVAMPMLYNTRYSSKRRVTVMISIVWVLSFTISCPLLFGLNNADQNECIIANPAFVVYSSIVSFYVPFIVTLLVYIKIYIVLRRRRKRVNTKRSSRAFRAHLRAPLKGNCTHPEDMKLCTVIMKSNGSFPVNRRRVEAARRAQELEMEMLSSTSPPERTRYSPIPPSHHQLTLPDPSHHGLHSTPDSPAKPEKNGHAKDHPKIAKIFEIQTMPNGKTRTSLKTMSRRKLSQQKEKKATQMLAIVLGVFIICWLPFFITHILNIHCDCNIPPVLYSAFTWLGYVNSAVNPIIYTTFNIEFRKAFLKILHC

Point of comparison: `CCCCN(C)CCNC(=O)c1cc(-c2ccc(Cl)s2)nc2ccccc12`, inhibition -25.6%. Against it:
- CC(C)COc1ccc(C(=O)Nc2scc(-c3ccc(Br)cc3)c2C(=O)OC(C)C)cc1 — higher, -9.58%
- CSc1ccc(CNC(=O)c2ccc3c(c2)N(C)C(=O)C2CCCCN32)cc1 (stereo not drawn) — higher, 13.9%
- CC(=O)N1CCCc2cc(S(=O)(=O)N3CCCC(C(=O)N4CCN(c5ccccc5F)CC4)C3)ccc21 (stereo not drawn) — higher, -12%
- Cc1ccc2c(c1)-c1c(cnn1CC(=O)N1CCN(c3cccc(C(F)(F)F)c3)CC1)CO2 — higher, 9.85%
- CCc1cccc(C)c1NS(=O)(=O)c1ccc2c(c1)NC(=O)C(C)C(=O)N2 (stereo not drawn) — higher, -11.3%
- Cc1nc(SCC(=O)OC(C)(C)C)c2c3c(sc2n1)CCCC3 — higher, -9.67%
- Cc1nn(S(=O)(=O)c2ccc(C(C)C)cc2)c(C)c1S(=O)(=O)N1CCCCC1 — higher, -4.42%
- COc1ccc(CNC(=O)c2ccc(CNS(=O)(=O)c3ccc(OC)cc3)cc2)cc1 — higher, 13%
- COc1cccc(NC(=O)c2ccc3c(=O)n4nc(Nc5ccccc5OC)sc4nc3c2)c1 — higher, 11.6%
- COCCCNC(=O)c1ccc(Cn2c(=O)c3ccccc3n(Cc3ccc(C)cc3)c2=O)cc1 — higher, -16.1%
- COCCOC(=O)Cn1nnc2sc(-c3ccccc3)cc2c1=O — higher, 23.2%
- CCOC(=O)c1ccc(NC(=O)CC2Nc3cc(C)c(C)cc3NC2=O)cc1 (stereo not drawn) — higher, 2.44%
- COc1ccc(CNC(=O)CN2C(=O)COc3ccc(S(=O)(=O)N4CCCCCC4)cc32)cc1 — higher, 14.1%
- COc1ccc(-n2c(SCC(=O)NCc3ccccc3)nc3ccsc3c2=O)cc1 — higher, 26.3%
- COC(=O)c1sccc1S(=O)(=O)N(CC(=O)Nc1cc(C)cc(C)c1)c1ccc(Cl)cc1 — higher, 14.1%
- COc1ccc(NC(=O)c2nn(C)c3c2CSc2ccc(C)cc2-3)cc1OC — higher, -8.85%
- Cc1ccc(C2Nc3ccccc3-n3c(-c4ccccc4)c4c(=O)n(C)c(=O)n(C)c4c32)cc1 (stereo not drawn) — higher, 7.37%
- COc1cccc(NC(=O)Cn2c(=O)n(Cc3nc(-c4ccccc4)no3)c(=O)c3ccccc32)c1 — higher, -2.44%
- CCOc1ccc(-c2cc(C)n3nc(C(=O)Nc4cc(Cl)ccc4O)cc3n2)cc1 — higher, 3.82%
- CCC(=O)Nc1ccc(S(=O)(=O)NCc2cccn2Cc2cccc(C)c2)cc1 — higher, 6.35%
- COc1ccccc1/C=C(\C#N)c1nc(-c2cc3ccccc3oc2=O)cs1 — higher, -3.15%
- COc1ccc(S(=O)(=O)NCCc2sc(-c3ccccc3)nc2C)cc1OC — higher, 13.9%
- CCOC(=O)N1CCC(NC(=O)c2cnn(-c3ccccc3)c2C2CCN(C(=O)OC(C)(C)C)CC2)CC1 — higher, -11.1%
- CCc1ccccc1NC(=O)CSc1ncc2c(n1)-c1ccccc1N(C)S2(=O)=O — higher, 12.2%
- O=C(NCCC1=CCCCC1)c1ccc2c(c1)ncn2-c1cccc(Cl)c1 — higher, 8.2%
- Cn1c(=O)c2c(-c3ccccc3)n3c(c2n(C)c1=O)C(c1cc(Cl)ccc1O)Nc1ccccc1-3 (stereo not drawn) — higher, 25.1%
- O=C(CCNS(=O)(=O)c1cccc2nsnc12)Nc1ccc(F)cc1 — higher, -1.5%
- Cc1csc2nc(-c3cccc(NC(=O)c4ccc(S(N)(=O)=O)cc4)c3)cn12 — higher, -2.74%
- COc1ccc(-c2nc3cc(NC(=O)COc4ccc(F)cc4)ccc3o2)cc1 — higher, -5.97%
- COc1ccc(OC)c(CNC(=O)c2cc(=O)[nH]c3ccc(S(=O)(=O)N4CCCCC4C)cc23)c1 (stereo not drawn) — higher, -8.12%
- Cc1ccc2cccc(NC(=O)c3ccc(-c4ccc(Cl)cc4Cl)o3)c2n1 — higher, -8.64%
- Cc1ccc(C(=O)N2c3nc(-c4ccco4)nn3C3(CCCCC3)[C@@H]3CCCC[C@@H]32)cc1 — higher, 8.24%
- Cc1cc(Nc2ccc(C)c(Cl)c2)n2nc(-c3ccccc3)nc2n1 — higher, 1.41%
- CC1CCN(S(=O)(=O)c2cccc(C(=O)NC3CCS(=O)(=O)C3)c2)CC1 (stereo not drawn) — higher, 14.5%
- CCN(C(=O)C(NS(=O)(=O)c1cccc2nsnc12)c1ccccc1)c1ccccc1 (stereo not drawn) — higher, -10.2%
- Cc1ccc(C)c(N2CCN(CCCNc3ncnc4onc(-c5ccc(Cl)cc5)c34)CC2)c1 — higher, 15%
- COCCCNC(=O)CCCN1C(=O)CCn2nc(-c3cn(C)c4ccccc34)cc21 — higher, -7.48%
- COc1ccc(-c2ccnc3c2c(=O)n(C)c(=O)n3C)cc1OC — higher, 6.51%
- Cc1ccc(NC(=O)[C@H](CSCc2ccccc2)N2Cc3ccccc3C2=O)cc1 — higher, -23.1%
- COc1cccc(CNC(=O)Cn2c(=O)n3nc(-c4cccc(C)c4)nc3c3ccccc32)c1 — higher, 15.9%
- CCCCN(Cc1ccccc1)S(=O)(=O)c1ccc2c(c1)CCN2C(=O)C1CCC1 — higher, -13%
- O=C(Cn1nc(Cc2cccnc2)c2ccccc2c1=O)N1CCN(c2ccc(F)cc2)CC1 — higher, -8.26%
- CCCSCCCNC(=O)C1CCCN(C(=O)c2cnn(-c3ccccc3)c2-n2cccc2)C1 (stereo not drawn) — higher, -1.43%
- COc1ccc(Nc2ncnc3onc(C)c23)cc1Cl — higher, 3.82%
- COC(=O)c1ccc(OCC2c3cc(OC)c(OC)cc3CCN2C(=O)c2cccc(C)c2)cc1 (stereo not drawn) — higher, -0.532%
- COc1cccc(N2CCN(C(=O)CN3CCSc4ccc(S(=O)(=O)N(C)C)cc43)CC2)c1 — higher, 3.96%
- COc1ccc(NC(=O)C2CCN(C3=NS(=O)(=O)C(c4ccc(C)c(C)c4)=C3C)CC2)cc1OC — higher, -6.08%
- COc1ccc(CNC(=O)CCS(=O)(=O)c2cc(Br)cc3c2N(C(=O)C2CC2)CC3)cc1 — higher, 19.9%
- COc1ccc2c(c1)NC(c1ccc(F)cc1)=NC(c1ccc(F)cc1)=N2 — higher, 12.2%
- Cc1ccc(/C=C/c2onc(C)c2S(=O)(=O)N2CCC(C(=O)NCc3ccco3)CC2)cc1 — higher, 21.3%
- Cc1ccc(CCNC(=O)c2ccc3c(c2)N(Cc2cc(C)ccc2C)C(=O)c2ccccc2S3=O)cc1 (stereo not drawn) — higher, 20.5%
- CCN(CC)c1ccc(NC(=O)CN2C(=O)c3cccnc3Oc3ccccc32)c(C)c1 — higher, 15.7%
- CC(C)(C)c1ccc(-c2nnc(-c3ccccc3NC(=O)c3cccc(C(F)(F)F)c3)o2)cc1 — higher, -5.05%
- CCCN1C(=O)C(Cc2nc3ccccc3c(=O)n2CC)c2cc(Br)ccc21 (stereo not drawn) — higher, -16.2%
- Cc1ccc(C)c(Cn2c(=O)n(Cc3ccccc3)c(=O)c3sc4ccccc4c32)c1 — higher, 13.6%
- CC1=C(C(=O)Nc2ccccc2)C(c2ccc(O)cc2)n2nc(-c3ccc(Cl)cc3)nc2N1 (stereo not drawn) — higher, 13.2%
- Cc1ccc(S(=O)(=O)NCCSc2nnnn2-c2ccccc2)cc1 — higher, -10.9%
- COc1ccc2c(c1)NC(c1ccc(Cl)cc1)=NC(c1cccs1)=N2 — higher, -1.43%
- Cc1oc(-c2cccc(Br)c2)nc1Cn1c(SCc2cccc(F)c2)nc2cccnc21 — higher, 3.74%
- COc1ccc(NC(=O)CCS(=O)(=O)c2ccc3c(c2)n(C)c(=O)c(=O)n3C)cc1Cl — higher, 14%
- O=C(CCC1N=C2c3ccccc3N=C(SCc3cccc(Cl)c3)N2C1=O)NCCc1ccccc1 (stereo not drawn) — higher, 0.473%
- COc1ccc(Br)cc1CNC(=O)CSc1n[nH]c(-c2ccccc2)n1 — higher, 1.14%
- CCC(C)[C@H](N)c1nnc(SCc2ccc(Cl)c(Cl)c2)o1 (stereo partly drawn) — higher, 2.31%
- Cc1ccc(CN2C(=O)C3(c4ccccc42)N(c2ccc(C)c(Cl)c2)C(=O)CS3(=O)=O)cc1 (stereo not drawn) — higher, 8.96%
- COc1ccc(NC(=O)CSc2cn(CCNC(=O)c3ccc(OC)cc3)c3ccccc23)cc1 — higher, 5.59%
- COc1cccc(/C=C(\C#N)C(=O)Nc2ccc(NC(C)=O)cc2)c1OC — lower, -27.7%
- CCc1nc2sc3c(N4CCCCC4)ncnc3c2c2c1CCCC2 — higher, 17%
- Cc1ccc(-c2nc3scc(CCNS(=O)(=O)c4ccc(Oc5ccccc5)cc4)n3n2)cc1 — higher, -14.8%
- CCOC(=O)c1c(-c2ccccc2)csc1NC(=O)c1nc(SCC)ncc1Cl — higher, 2.48%
- CCCCCNC(=O)C1CCC(Cn2c(=O)c3sccc3n(CC)c2=O)CC1 (stereo not drawn) — higher, 11.6%
- CCOc1cc(/C=C(\C#N)C(=O)Nc2ccc(OC)cc2)ccc1OCc1cc(=O)n2nc(CC)sc2n1 — higher, -15.9%
- CC(=O)Nc1ccc(NC(=O)c2ncoc2-c2ccco2)cc1 — higher, 10.4%
- Cc1ccc2nc(CSc3nnc(NC(=O)c4ccc(C(C)(C)C)cc4)s3)cc(=O)n2c1 — higher, -5.38%
- CCc1ccc(NC(=O)CN2C(=O)CC(c3ccccc3)Sc3ccccc32)cc1 (stereo not drawn) — higher, -12%
- CC(C)(C)OC(=O)N1CCC(c2c(C(=O)NCCN3CCOCC3)cnn2-c2ccc(F)cc2F)CC1 — higher, 6.14%
- COc1ccc(-c2cccc(NS(=O)(=O)c3ccc(NC(C)=O)cc3)c2)nn1 — higher, -6.65%
- CCOc1ccccc1Nc1nc2c(S(=O)(=O)c3ccc(C)cc3)nnn2c2ccsc12 — higher, 0.457%
- Cc1cccc(-n2ncc(C(=O)NCc3ccc4c(c3)OCO4)c2C2CCN(C(=O)OC(C)(C)C)CC2)c1 — higher, 7.13%

With `COC(=O)c1c(C)[nH]c(C(=O)/C=C/c2ccc(Cl)cc2)c1C` the inhibition was active: 40.8%.
With `C=CCN(CC=C)C(=O)Cc1ccc(F)cc1` the inhibition was active: 31.1%.
In the case of `CCOc1ccc(Oc2ccccc2NC(=O)C2=COCCO2)cc1`, the inhibition was active: 37.2%.
In the case of `CC1CCCCN1C(=O)c1cccc(NC(=O)c2ccccc2)c1` (stereo not drawn), the inhibition was active: 36.5%.
In the case of `FC(F)(F)c1ccccc1NC(=S)NC1CCN(Cc2ccccc2)CC1`, the inhibition was active: 115%.
`NC(=S)NNC(=O)C12CC3CC(CC(C3)C1)C2` was tested, and the inhibition was active: 43.9%.
For `O=C(C1CCN(c2nnc(-n3cccc3)s2)CC1)N1CCN(Cc2ccc3c(c2)OCO3)CC1`, the inhibition was active: 31.5%.
In the case of `O=C(OCc1nnc(-c2ccc([N+](=O)[O-])cc2)o1)C1CCN(C(=O)c2ccc(F)cc2)CC1`, the inhibition was active: 34.7%.
`CC(C)c1[nH]nc2c1C1(CCN(Cc3ccccc3)CC1)C(C#N)=C(N)O2` was tested, and the inhibition was active: 39.6%.
`COc1cc(OC)cc(C(=O)NC(=S)N2CCN(c3ccc(C(F)(F)F)cc3[N+](=O)[O-])CC2)c1` was tested, and the inhibition was active: 30%.
With `CN1CCN(C2=Nc3cc(F)ccc3Cc3ccccc32)CC1` the inhibition was active: 32.9%.
`Cc1ccccc1/C=C\c1nc2ccccc2c(=O)[nH]1` was tested, and the inhibition was active: 33.1%.
For `c1ccc(N2CCN(Cc3ccsc3)CC2)nc1`, the inhibition was active: 84.1%.
`CCC(C)c1ccccc1OCCOCCN1CCCC1` (stereo not drawn) was tested, and the inhibition was active: 54%.
